Source: PubChem BioAssay AID2546 (National Center for Advancing Translational Sciences (NCATS), 2010)
About 11,000 (3.5%) of roughly 310,000 compounds were called active. The shares of active, inactive and inconclusive entries below differ from those in the screen. The call rests on the fitted dose curve; in most records, active means well fitted inhibition curve with a large enough effect; inconclusive means small, poorly fitted or top-dose-only effect, or effect the other way; inactive means flat fitted curve, though single readings scatter. No potency is given beside an inconclusive call; the fits are too rough.
Potency means the concentration at half of the fitted maximal effect; tags describe the fitted curve by direction and shape.

Experiment: VP16 counterscreen qHTS for inhibitors of ROR gamma transcriptional activity;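 further: Gal4-VP16 expression switched on by copper sulfate through the metallothionein promoter; nearly all actives have a fitted effect of over 50% in size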
Conditions: Drosophila S2 Gal4-VP16 UAS-luciferase, luminescence, 20 h; series mostly up to 53.6 µM
In the case of `c1ccc(C2CCC(N3CCN(c4ccccc4)CC3)CC2)cc1` (centres undefined), the Potency is reported as inconclusive [inhibitor, full curve, poor fit]. For `Cc1ccc(C(=O)OCC(=O)Nc2ccccc2C(F)(F)F)cc1S(=O)(=O)N1CCOCC1`, the Potency was inconclusive [inhibitor, single point]. With `CCOc1ccc(-c2cc(CCCC(=O)Nc3cc(OC)ccc3OC)no2)cc1` the Potency was inconclusive [inhibitor, full curve]. For `C=CCSc1nnc2c(n1)[nH]c1c(C)cccc12`, the Potency was inconclusive [inhibitor, single point]. For `CCCNC(=O)c1c[nH]c2ccc(S(=O)(=O)N(C)c3ccc(OCC)cc3)cc2c1=O`, the Potency was inconclusive [inhibitor, single point]. For `Cc1[nH]nc2c1C(c1ccc(-c3ccc(Cl)cc3)o1)C(C#N)=C(N)O2` (centres undefined), the Potency was inconclusive [inhibitor, single point]. In the case of `C/C(=N\NC(=O)c1[nH]c2c([N+](=O)[O-])cc(C)cc2c1-c1ccccc1)c1cccnc1`, the Potency is reported as inconclusive [inhibitor, single point]. In the case of `O=C(Cc1cccs1)NCCCc1ccccc1`, the Potency is reported as inconclusive [inhibitor, single point]. In the case of `COc1cc(/C=N/N=C(N)N)ccc1OCc1ccccc1Cl`, the Potency is reported as inconclusive [inhibitor, single point]. For `CCOc1ccc2[nH]c(=O)c(C(c3nnnn3Cc3ccco3)N3CCN(C)CC3)cc2c1` (centres undefined), the Potency was active: 3.55 µM. With `OCCN1CCN(C(c2cccs2)c2ccc3cccnc3c2O)CC1` (centres undefined) the Potency was active: 11.2 µM. For `CCN1CCCC1CNS(=O)(=O)c1ccc(Br)cc1` (centres undefined), the Potency was inconclusive [inhibitor, full curve, poor fit]. In the case of `CCOC(=O)C1CCN(Cc2cnc(Oc3ccc(N)cc3)s2)CC1`, the Potency is reported as inconclusive [inhibitor, single point]. With `Cc1ccc(Oc2nc(CN3CCOCC3)nc3sc4c(c23)CCC(C)C4)cc1` (centres undefined) the Potency was inconclusive [inhibitor, single point]. For `CCSc1nnc(NC(=O)c2cccs2)s1`, the Potency was inconclusive [activator, full curve, poor fit]. With `O=C(Nc1cccc([N+](=O)[O-])c1)c1cnccn1` the Potency was “inactive”. For `CC(C)(C)n1ncc2c(=O)n(CC(=O)c3ccccc3)cnc21`, the Potency was inconclusive [inhibitor, single point]. With `CCN1CCc2c(sc(NC(=O)c3ccc(S(=O)(=O)N(C)c4ccccc4)cc3)c2C(=O)NC)C1` the Potency was inconclusive [inhibitor, single point]. For `CCOC(=O)C1CCN(C(=O)CCc2nnc3ccc(NCc4ccco4)nn23)CC1`, the Potency was “inactive”. For `O=C(NC1CCN(Cc2ccccc2)CC1)c1c(F)cccc1F`, the Potency was “inactive”. In the case of `CCN(CC(=O)NCc1ccc(F)cc1)Cc1nc2ccccc2c(=O)[nH]1`, the Potency is reported as active: 10 µM. For `CCCCN(CCCC)C(=O)/C=C/c1cccc([N+](=O)[O-])c1`, the Potency was inconclusive [inhibitor, single point]. In the case of `COc1ccc(/C=C/C(=O)NC(=S)NN2CCCCC2c2cccnc2)cc1` (centres undefined), the Potency is reported as inconclusive [inhibitor, single point]. For `O=C(O)/C(=C\c1ccccc1Cl)c1ccc(S(=O)(=O)N2CCCCC2)s1`, the Potency was inconclusive [inhibitor, single point]. With `CC(C)(C)c1ccc(/C=C/C(=O)c2ccc(NC3=NCCCS3)cc2)cc1` the Potency was active: 5.62 µM. For `COCCN(Cc1nc(C(c2ccccc2)c2ccccc2)no1)C(C)C`, the Potency was “inactive”. In the case of `O=C(NC(=S)Nc1ccccn1)c1ccco1`, the Potency is reported as inconclusive [inhibitor, single point]. In the case of `COc1cc(C(C(=O)NC2CCCC2)N(Cc2ccco2)C(=O)c2snc(C(N)=O)c2N)cc(OC)c1OC` (centres undefined), the Potency is reported as inconclusive [inhibitor, single point]. In the case of `Cc1ccccc1-c1cc2c(nn1)-c1ccccc1C2=O`, the Potency is reported as active: 8.91 µM. For `COC(=O)c1[nH]nc2c1C(=O)N(C1CCCCC1)C2=O`, the Potency was inconclusive [inhibitor, single point]. With `O=C(Nc1ccn(Cc2c(F)c(F)cc(F)c2F)n1)c1ccc(COc2ccc(Cl)cc2Cl)o1` the Potency was “inactive”. With `CCc1c(C)nc2ncnn2c1N1CCCC(C(=O)NCCc2ccc(OC)cc2)C1` (centres undefined) the Potency was inconclusive [inhibitor, single point]. For `COCc1cc(C)nc(SCC(=O)Nc2ccc3c(c2)n(C)c(=O)n3C)c1C#N`, the Potency was “inactive”. For `CCc1nc2sc3c(c2c(=S)[nH]1)CC(C)(C)OC3`, the Potency was active: 6.31 µM. With `CN1C(=O)/C(=C/c2cc(C(C)(C)C)c(O)c(C(C)(C)C)c2)NC1=S` the Potency was inconclusive [inhibitor, partial curve]. With `Cc1ccc(NC(=S)NNC(=O)Cn2nc([N+](=O)[O-])cc2C)cc1` the Potency was “inactive”. For `O=C(Nc1nc2ccccc2[nH]1)c1cc(F)cc(F)c1`, the Potency was inconclusive [inhibitor, partial curve]. With `COc1ccc(Oc2cc(C)nc(Cl)n2)nn1` the Potency was “inactive”. For `Cn1cnc([N+](=O)[O-])c1Oc1cccc2ccccc12`, the Potency was inconclusive [inhibitor, single point]. In the case of `Cc1ccc(CNC(=O)c2ccccc2NS(=O)(=O)c2ccc(Cl)nc2)cc1`, the Potency is reported as inconclusive [inhibitor, partial curve]. With `O=C(CCl)NNc1nc(-c2ccccc2)c2cc(Cl)ccc2n1` the Potency was active: 17.8 µM. With `O=C1c2cc([N+](=O)[O-])cc3cc([N+](=O)[O-])cc(c23)C(=O)N1c1ccccn1` the Potency was “inactive”. In the case of `O=C(NCc1ccccc1)C(=O)Nc1nc(C23CC4CC(CC(C4)C2)C3)cs1`, the Potency is reported as active: 7.08 µM. With `CCCOC(=O)c1ccc(NC(=O)c2cccc(S(=O)(=O)N3CCN(C(C)=O)CC3)c2)cc1` the Potency was inconclusive [inhibitor, single point]. In the case of `O=C(Nc1nc2c(s1)CCCC2)C1COc2ccccc2O1` (centres undefined), the Potency is reported as inconclusive [inhibitor, single point]. For `COc1ccc(CCNC(=S)NC(=O)c2c(-c3ccccc3Cl)noc2C)cc1OC`, the Potency was inconclusive [inhibitor, single point]. In the case of `O=C(CCSc1nc(-c2ccco2)cc(C(F)(F)F)n1)NCCc1ccccc1`, the Potency is reported as inconclusive [activator, single point]. With `Cc1ccc(-c2c[n+](CC(=O)N3c4ccccc4Sc4ccccc43)c3n2CCC3)cc1` the Potency was inconclusive [inhibitor, single point]. With `CCCCn1c(=N)n(CC(O)COc2cccc(C)c2)c2ccccc21` (centres undefined) the Potency was inconclusive [inhibitor, single point]. For `N#Cc1cnc(Nc2nc3ccccc3o2)nc1-c1ccccc1`, the Potency was active: 5.01 µM. In the case of `Cc1cc2c(c(=O)n1-c1ccccc1)C1O[C@](c3ccsc3)(Cc3ccccc31)O2`, the Potency is reported as inconclusive [inhibitor, single point]. In the case of `C/C(=N\NC(=O)c1nnn(-c2nonc2N)c1CN1CCc2ccccc21)c1ccccc1O`, the Potency is reported as active: 4.47 µM. With `COc1cc(/C=N/Nc2ccc(C(F)(F)F)cn2)cc(OC)c1O` the Potency was inconclusive [inhibitor, partial curve, poor fit]. In the case of `Nc1c(C(=O)O)ccc2c1C(=O)c1ccccc1C2=O`, the Potency is reported as “inactive”. In the case of `CC1CCc2nc3sc4c(c3c(N)c2C1)CCCC4` (centres undefined), the Potency is reported as “inactive”. For `CCc1ccc(/C=C2/C(=O)N(c3ccccc3)C(=S)N2CC(=O)OC)s1`, the Potency was inconclusive [inhibitor, single point]. In the case of `C=CCn1c(O)c(N=NC(=O)CNC(=O)c2ccncc2)c2ccccc21`, the Potency is reported as inconclusive [inhibitor, single point]. With `CN(C(=O)C1CCCO1)c1nnc(-c2ccccn2)s1` (centres undefined) the Potency was inconclusive [inhibitor, single point]. With `O=C1CC(SC2=NCCS2)C(=O)N1c1cccc(Cl)c1Cl` (centres undefined) the Potency was “inactive”. For `O=C(N/N=C(/CC(=O)c1cccs1)C(F)(F)F)c1ccc(O)cc1`, the Potency was inconclusive [inhibitor, single point]. In the case of `O=C(N[C@@H](Cc1ccccc1)C(=O)OCc1ccccc1)c1nc[nH]c1C(=O)N1CCc2ccccc2C1`, the Potency is reported as inconclusive [inhibitor, single point]. For `CC(C)Oc1cccc(-c2cc(C(=O)NC(=S)N(C)c3ccccc3C(=O)O)c3ccccc3n2)c1`, the Potency was inconclusive [inhibitor, single point]. In the case of `COc1cc(NS(=O)(=O)c2ccc(NC(=O)C34CC5CC(CC(C5)C3)C4)cc2)ncn1`, the Potency is reported as “inactive”. For `CC1Cc2ccccc2N1C(=S)NC(=O)c1cccc(Br)c1` (centres undefined), the Potency was active: 0.794 µM. In the case of `O=C(Nc1ccc2ccccc2c1)c1ccc(Cl)cc1`, the Potency is reported as inconclusive [inhibitor, single point]. In the case of `CCCc1cc(-c2[nH]ncc2-c2ccc(C(=O)OCC)o2)c(O)cc1O`, the Potency is reported as inconclusive [inhibitor, single point]. In the case of `CCc1cc(OCCCSc2nc(C)cc(=O)[nH]2)ccc1Cl`, the Potency is reported as active: 8.91 µM. For `O=C(c1ccccn1)N1N=C2/C(=C/c3ccc(F)cc3)CCCC2C1c1ccc(F)cc1` (centres undefined), the Potency was inconclusive [inhibitor, single point]. In the case of `Cc1ccc(C(=O)CSc2nc3ccccc3o2)cc1`, the Potency is reported as inconclusive [inhibitor, single point].
